Our source for the IC50 values is patent US11618753B2 (priority 2018, dated 2023).

Structures are written as SMILES. Structures can show the parent of a compound that is named as a salt.

This assay concerns MLKL phosphorylation, HT29-L23 human colorectal adenocarcinoma cells. The experiment in a line: cells. The settings on record: read-out: pMLKL HCS Cell Assay (IC50, uM).
Regarding `COc1ncc(-c2cc(CNCCO)c3c(N)ncnn23)cc1C(=O)N[C@@H]1CN(C(=O)C2CC(F)(F)C2)C[C@@H]1F` [Example 500, 5-(4-amino-5-{[(2-hydroxyethyl)amino]methyl}pyrrolo[2,1-f][1,2,4]triazin-7-yl)-N-[(3R,4S)-1-(3,3-difluorocyclobutanecarbonyl)-4-fluoropyrrolidin-3-yl]-2-methoxypyridine-3-carboxamide], the IC50 (commonly the concentration needed to halve the response being measured) came to 0.036 µM.

On to `COc1ncc(-c2cc(CN3CC(N)C3)c3c(N)ncnn23)cc1C(=O)N[C@@H]1CN(CC(O)C(F)(F)F)C[C@@H]1F` (stereo partly drawn) [Example 482, 5-{4-amino-5-[(3-aminoazetidin-1-yl)methyl]pyrrolo[2,1-f][1,2,4]triazin-7-yl}-N[(3R,4S)-4-fluoro-1-(3,3,3-trifluoro-2-hydroxypropyl)pyrrolidin-3-yl]-2-methoxypyridine-3-carboxamide], for which the IC50 was 0.205 µM.

Turning to `CC(C)(C)C(=O)N1C[C@H](F)[C@H](NC(=O)c2cccc(-c3cc(C(F)(F)F)c4c(N)ncnn34)c2F)C1` [Example 765, 3-[4-amino-5-(trifluoromethyl)pyrrolo[2,1-f][1,2,4]triazin-7-yl]-N-[(3R,4S)-1-(2,2-dimethylpropanoyl)-4-fluoropyrrolidin-3-yl]-2-fluorobenzamide], the 50% inhibitory concentration (IC50) was 0.195 µM.

Regarding `COc1ncc(-c2cc(C(F)(F)F)c3c(N)ncnn23)cc1C(=O)N[C@H]1CN(C(=O)c2ccccc2)C[C@H]1C` (stereo in doubt) [Example 14, 5-[4-amino-5-(trifluoromethyl)pyrrolo[2,1-f][1,2,4]triazin-7-yl]-N-(1-benzoyl-4-methylpyrrolidin-3-yl)-2-methoxypyridine-3-carboxamide], the IC50 was found to be 2.62 µM.

In the case of `Cc1ccc(-c2cc(C(F)(F)F)c3c(N)ncnn23)cc1C(=O)Nc1cn(C(c2ccc(F)cc2)C(F)(F)F)cn1` (stereo not shown) [Example 1818, 5-(4-amino-5-(trifluoromethyl)pyrrolo[2,1-f][1,2,4]triazin-7-yl)-2-methyl-N-(1-(2,2,2-trifluoro-1-(4-fluorophenyl)ethyl)-1H-imidazol-4-yl)benzamide], the IC50 came out at 0.0051 µM.

Regarding `Cc1cc(-c2cc(C(F)(F)F)c3c(N)ncnn23)cc(C(=O)N[C@@H]2CN(C(=O)C3CCC(F)(F)C3)C[C@@H]2F)c1Cl` (stereo partly drawn) [Example 710, 5-[4-amino-5-(trifluoromethyl)pyrrolo[2,1-f][1,2,4]triazin-7-yl]-2-chloro-N-[(3R,4S)-1-(3,3-difluorocyclopentanecarbonyl)-4-fluoropyrrolidin-3-yl]-3-methylbenzamide], the concentration for half-maximal inhibition (IC50) is 0.014 µM.

`Cc1ccc(-c2cc(C(F)(F)F)c3c(N)ncnn23)cc1C(=O)N[C@@H]1CN(C(=O)c2ccccn2)C[C@@H]1F` [Example 1019, 5-[4-amino-5-(trifluoromethyl)pyrrolo[2,1-f][1,2,4]triazin-7-yl]-N-[(3R,4S)-4-fluoro-1-(pyridine-2-carbonyl)pyrrolidin-3-yl]-2-methylbenzamide]: the 50% inhibitory concentration (IC50) stood at 0.0081 µM.

Regarding `COc1ncc(-c2cc(C(F)(F)F)c3c(N)ncnn23)cc1C(=O)N[C@@H]1CN(C(C)c2ncccc2F)C[C@@H]1F` (stereo partly drawn) [Example 450, 5-[4-amino-5-(trifluoromethyl)pyrrolo[2,1-f][1,2,4]triazin-7-yl]-N-[(3R,4S)-4-fluoro-1-[1-(3-fluoropyridin-2-yl)ethyl]pyrrolidin-3-yl]-2-methoxypyridine-3-carboxamide], the IC50 was determined as 0.045 µM.

Take `[2H]C([2H])([2H])Oc1ncc(-c2cc(CN3CC(F)(F)C3)c3c(N)ncnn23)cc1C(=O)N[C@@H]1CN(S(=O)(=O)CC(C)C)C[C@@H]1F` [Example 1289, 5-{4-amino-5-[(3,3-difluoroazetidin-1-yl)methyl]pyrrolo[2,1-f][1,2,4]triazin-7-yl}-N-[(3R,4S)-4-fluoro-1-(2-methylpropanesulfonyl)pyrrolidin-3-yl]-2-(methoxy-d3)nicotinamide]: the 50% inhibitory concentration (IC50) came out at 0.00049 µM.

With `CNc1ccc(-c2cc(C(F)(F)F)c3c(N)ncnn23)cc1C(=O)N[C@@H]1CN(C(=O)[C@@](C)(O)C(F)(F)F)C[C@@H]1F` [Example 1136, 5-[4-amino-5-(trifluoromethyl)pyrrolo[2,1-f][1,2,4]triazin-7-yl]-N-[(3R,4S)-4-fluoro-1-[(2R)-3,3,3-trifluoro-2-hydroxy-2-methylpropanoyl]pyrrolidin-3-yl]-2-(methylamino)benzamide], the concentration for half-maximal inhibition (IC50) stood at 0.015 µM.

Consider `COc1ncc(-c2cc(CN3CCC(F)(F)CC3)c3c(N)ncnn23)cc1C(=O)N[C@@H]1CN(C(=O)C(C)(C)O)C[C@@H]1F` [Example 1260, 5-{4-amino-5-[(4,4-difluoropiperidin-1-yl)methyl]pyrrolo[2,1-f][1,2,4]triazin-7-yl}-N-[(3R,4S)-4-fluoro-1-(2-hydroxy-2-methylpropanoyl)pyrrolidin-3-yl]-2-methoxypyridine-3-carboxamide], for which the IC50 is 0.00055 µM.

As to `CC(C)(F)C(=O)N1C[C@H](F)[C@H](NC(=O)c2cc(-c3cc(CN4CCC(F)(F)CC4)c4c(N)ncnn34)ccc2Cl)C1` [Example 1144, 5-{4-amino-5-[(4,4-difluoropiperidin-1-yl)methyl]pyrrolo[2,1-f][1,2,4]triazin-7-yl}-2-chloro-N-[(3R,4S)-4-fluoro-1-(2-fluoro-2-methylpropanoyl)pyrrolidin-3-yl]benzamide], the IC50 amounted to 0.00034 µM.

Turning to `COc1ccc(-c2cc(C(F)(F)F)c3c(N)ncnn23)cc1C(=O)N[C@@H]1CN(C(=O)C(C)(C)O)C[C@@H]1F` [Example 1116, 5-[4-amino-5-(trifluoromethyl)pyrrolo[2,1-f][1,2,4]triazin-7-yl]-N-[(3R,4S)-4-fluoro-1-(2-hydroxy-2-methylpropanoyl)pyrrolidin-3-yl]-2-methoxybenzamide], the IC50 is 0.049 µM.

Consider `COc1ncc(-c2cc(C(F)(F)F)c3c(N)ncnn23)cc1C(=O)NC1CN(C(C)c2csc(C)n2)C[C@@H]1F` (stereo partly shown) [Example 442], for which the IC50 came out at 0.017 µM.

Consider `COc1ncc(-c2cc(CN3CC4(COC4)C3)c3c(N)ncnn23)cc1C(=O)N[C@@H]1CN(CC(O)C(F)(F)F)C[C@@H]1F` (stereo partly shown) [Example 480], for which the 50% inhibitory concentration (IC50) came out at 0.323 µM.

With `COc1ncc(-c2cc(C(C)N3CCCCC3)c3c(N)ncnn23)cc1C(=O)NC1CN(C(=O)C(C)(O)C(F)(F)F)C[C@@H]1F` (stereo in doubt) [Example 1591, 5-{4-amino-5-[1-(piperidin-1-yl)ethyl]pyrrolo[2,1-f][1,2,4]triazin-7-yl}-N-[(3R,4S)-4-fluoro-1-[(2S)-3,3,3-trifluoro-2-hydroxy-2-methylpropanoyl]pyrrolidin-3-yl]-2-methoxypyridine-3-carboxamide], the IC50 amounted to 0.0011 µM.

Consider `CCC(O)(C(=O)N1C[C@H](F)[C@H](NC(=O)c2cc(-c3cc(C(F)(F)F)c4c(N)ncnn34)cc(F)c2CF)C1)C(F)(F)F` (stereo partly drawn) [Example 628, 5-[4-amino-5-(trifluoromethyl)pyrrolo[2,1-f][1,2,4]triazin-7-yl]-3-fluoro-N-[(3R,4S)-4-fluoro-1-[2-hydroxy-2-(trifluoromethyl)butanoyl]pyrrolidin-3-yl]-2-(fluoromethyl)benzamide], for which the IC50 amounted to 0.0039 µM.

Turning to `Nc1ncnn2c(-c3ccc(Cl)c(C(=O)N[C@@H]4CN(C(=O)C5CC(F)(F)C5)C[C@@H]4F)c3)cc(CN3CCC(C(F)(F)F)CC3)c12` [Example 1157], the concentration for half-maximal inhibition (IC50) is 0.0017 µM.

With `CC(C)(O)C(=O)N1C[C@H](F)[C@H](NC(=O)c2ccc(F)c(-c3cc(C(F)(F)F)c4c(N)ncnn34)c2)C1` [Example 427, 3-[4-amino-5-(trifluoromethyl)pyrrolo[2,1-f][1,2,4]triazin-7-yl]-4-fluoro-N-[(3R,4S)-4-fluoro-1-(2-hydroxy-2-methylpropanoyl)pyrrolidin-3-yl]benzamide, TFA], the IC50 was 0.405 µM.

For `COc1ncc(-c2cc(C(F)(F)F)c3c(N)ncnn23)cc1C(=O)N[C@@H]1CN(C(=O)OC2CC(F)(F)C2)C[C@@H]1F` [Example 1454, 3,3-difluorocyclobutyl (3R,4S)-3-{5-[4-amino-5-(trifluoromethyl)pyrrolo[2,1-f][1,2,4]triazin-7-yl]-2-methoxypyridine-3-amido}-4-fluoropyrrolidine-1-carboxylate], the 50% inhibitory concentration (IC50) came to 0.0068 µM.

Consider `COc1ncc(-c2cc(C(F)(F)F)c3c(N)ncnn23)cc1C(=O)Nc1cn(Cc2ccc(Cl)cc2)cn1` [Example 1807, 5-(4-amino-5-(trifluoromethyl)pyrrolo[2,1-f][1,2,4]triazin-7-yl)-N-(1-(4-chlorobenzyl)-1H-imidazol-4-yl)-2-methoxynicotinamide], for which the half-inhibitory concentration (IC50) was found to be 0.016 µM.

On to `COc1ncc(-c2cc(CN3CCC(F)(F)CC3)c3c(N)ncnn23)cc1C(=O)N[C@@H]1CN(C(=O)c2ccc(F)cc2Cl)C[C@@H]1F` [Example 1253, 5-{4-amino-5-[(4,4-difluoropiperidin-1-yl)methyl]pyrrolo[2,1-f][1,2,4]triazin-7-yl}-N-[(3R,4S)-1-(2-chloro-4-fluorobenzoyl)-4-fluoropyrrolidin-3-yl]-2-methoxypyridine-3-carboxamide], for which the 50% inhibitory concentration (IC50) was determined as 0.0015 µM.

In the case of `Nc1ncnn2c(-c3ccc(Cl)c(C(=O)N[C@@H]4CN(C(=O)CC(O)(C(F)(F)F)C(F)(F)F)C[C@@H]4F)c3)cc(C(F)(F)F)c12` [Example 931, 5-[4-amino-5-(trifluoromethyl)pyrrolo[2,1-f][1,2,4]triazin-7-yl]-2-chloro-N-[(3R,4S)-4-fluoro-1-[4,4,4-trifluoro-3-hydroxy-3-(trifluoromethyl)butanoyl]pyrrolidin-3-yl]benzamide], the 50% inhibitory concentration (IC50) worked out at 0.0027 µM.

Regarding `[2H]C([2H])([2H])Oc1ncc(-c2cc(CC3CC(F)(F)C3)c3c(N)ncnn23)cc1C(=O)N[C@@H]1CN(C(=O)OCC(F)(F)F)C[C@@H]1F` [Example 1548, 2,2,2-Trifluoroethyl (3R,4S)-3-(5-(4-amino-5-((3,3-difluorocyclobutyl)methyl)pyrrolo[2,1-f][1,2,4]triazin-7-yl)-2-(methoxy-d3)nicotinamido)-4-fluoropyrrolidine-1-carboxylate], the IC50 came to 0.0006 µM.

With `Cc1ncc(-c2cc(C(F)(F)F)c3c(N)ncnn23)cc1C(=O)NCCC(O)c1ccc(F)cc1` (stereo not shown) [Example 168, 5-[4-amino-5-(trifluoromethyl)pyrrolo[2,1-f][1,2,4]triazin-7-yl]-N-[3-(4-fluorophenyl)-3-hydroxypropyl]-2-methylpyridine-3-carboxamide], the IC50 was found to be 0.0028 µM.
